Experimental data taken from article PMC10614163 (ACS nano, 2023).

Settings: pH 8

With Cy5.5 as the substance, how does the “critical total charge for coacervation” value read?
The value was 0.024 mM.
